From patent US20150250174A1, “USE OF N-THIO-ANTHRANILAMIDE COMPOUNDS ON CULTIVATED PLANTS” (BASF SE, priority 2012, published 2015) come the findings set out here.

The test system of the experiment is Anticarsia gemmatalis. Put plainly: whole plant or invertebrate. The conditions noted are these: in Glycine max, 48 h, read-out: mortality 2 DAA.

By mortality is commonly meant the share of the test organisms that died. With `CCS(CC)=NC(=O)c1cc(Cl)cc(C)c1NC(=O)c1cc(C(F)(F)F)nn1-c1ncccc1Cl` [compound I-11, 2-(3-chloro-2-pyridyl)-N-[2-methyl-4-chloro-6-[(diethyl-λ^4-sulfanylidene)carbamoyl]phenyl]-5-(trifluoromethyl)pyrazole-3-carboxamide], the mortality at 12.5 g/ha came to 81%.
